The source gives no read counts; variants with many changes may rest on few reads.
B1: CPEB3 Ribozyme (parent)
chain: UAACAGGGGGCCACAGCAGAAGCGUUCACGUCGCAGCCCCUGUCAGAUUCUGGUGAAUCUGCGAAUUCUGCUGUAUAUCUC

Variants of: B1
Test: self-cleavage, relative activity (ratio to wild type); higher = more cleavage; in vitro, sequencing
In short: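 Relative activity was defined as the cleaved/total read fraction for a variant divided by the same fraction for the unmutated ribozyme. CPEB3 self-cleaving ribozyme libraries were made by rounds of error-prone PCR, barcoded, and transcribed in vitro with T7 RNA polymerase for 5 hours at 37°C, and cleavage ran through transcription plus a 15 min DNase I step before EDTA. Illumina sequencing of template-switched reverse transcripts gave the reads, and DNA sequencing mapped the barcodes. Averages come from three batches, using variants with at least 5 reads.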

| Variant | self-cleavage |
| --- | --- |
| A21U G24A A57G U66A | 0.08 |
| A21G U66A U72C | 0.34 |
| A21G U41A U51C | 0.15 |
| A21G U26A U41C | 0.22 |
| A21U A28U G33A A45U U60G U69C | 0.03 |
| A21G U31C U49C U51C | 0.09 |
| A21U A28G U74A U78C | 0.2 |
| A21U A45G A57G U58G | 0.04 |
| A21G U51C U58C | 0.1 |
| A21U C32U U43C | 0.1 |
| A21G U43C C50A U66C U72G | 0.09 |
| A21G U49C U78C | 0.39 |
| A21U C44G A56G | 0.05 |
| A21U A28C U41G A56G U60A U80C | 0.23 |
| A21G U31C C38A U43A U51C U60C | 0.09 |
| A21G U25G U31C U54A U78C | 0.05 |
| A21G U60C A77U | 0.24 |
| A21G U60C A77G | 0.26 |
| A21U A57G U80C | 0.57 |
| A21G U51C U58C C62U U66C | 0.07 |
| A21G U26A A35U U41C U74C | 0.34 |

| Variant | self-cleavage |
| --- | --- |
| A21U C23U U26C G52A | 0.06 |
| A21G U25G U31C U76A | 0.07 |
| A21G U26C U43C A45G | 0.21 |
| A21G U49A U72A | 0.09 |
| A21G U31C C50U A56G | 0.16 |
| A21G U26A U80C | 0.58 |
| A21G U43C C59U U60A A64C | 0.11 |
| A21U C23U A65U | 0.04 |
| A21G U41A A65G U72A | 0.05 |
| A21G U31C U51C G63U U72C | 0.15 |
| A21G U49A U51A A65G | 0.08 |
| A21G U58A U69C U72C | 0.21 |
| A21U U25C A56G | 0.21 |
| A21G U25C U41A | 0.09 |
| A21G U25A U54C A75U U78C | 0.09 |
| A21G U31C U54C | 0.23 |
| A21G U31A U48C A64G | 0.19 |
| A21G U43C C68U | 0.33 |
| A21G U31C A45C U60A | 0.24 |
| A21G U54A U69C | 0.19 |
| A21G U58C C59A A77U | 0.11 |

| Variant | self-cleavage |
| --- | --- |
| A21G U26A A47U | 0.09 |
| A21G U26A A57G U60A | 0.18 |
| A21G U69A A77U | 0.5 |
| A21U U43A G73U | 0.99 |
| A21G U25C U49C A77U | 0.05 |
| A21G U25C G63A A64G | 0.08 |
| A21G U26C U76C A77G | 0.11 |
| A21G U25C U26A U51A A65G U80A | 0.06 |
| A21G U26C U31C U72G | 0.19 |
| A21U U25A C34A U43C A56U | 0.14 |
| A21U U26C A35U A45G | 0.06 |
| A21G U41A A45U U49G A65G | 0.05 |
| A21G U31C A45G U76A | 0.21 |
| A21G U31C A45G U76C | 0.4 |
| A21G U54C U60A U67A | 0.16 |
| A21G U25C U31C U51A U72C | 0.14 |
| A21G U51C U60C C71A | 0.19 |
| A21U U31A A47G U54C C68A | 0.11 |
| A21G U26G A56G U78A | 0.04 |
| A21G U31A U60A | 0.24 |
| A21U U31A A35G U43C U49A | 0.05 |

| Variant | self-cleavage |
| --- | --- |
| A21U A77G U78C | 0.27 |
| A21U U41A U43C U72C | 0.22 |
| A21G U54G A64G U74A | 0.59 |
| A21G U69C A75U | 0.19 |
| A21G U25C A57G | 0.19 |
| A21G U31C U60C | 0.11 |
| A21G U26A G36A | 0.16 |
| A21G U41C U43C U48C A65G C71U U72A | 0.28 |
| A21U U25C C39A U43C U54C C71A | 0.04 |
| A21U C44G G55A | 0.13 |
| A21G U25C C38G A47G A64G A77U | 0.04 |
| A21G U48C U76C | 0.46 |
| A21U A45U U54C U66C U74C | 0.15 |
| A21G U60C U72C | 0.26 |
| A21G U49C U58A | 0.06 |
| A21U U41C A45G U58G A65G U72C | 0.05 |
| A21G U26C A35U U51C U60C U74C | 0.07 |
| A21G U54C G70A C71G | 0.08 |
| A21U U26C U72A U76C | 0.09 |
| A21U A47U U51A A64G | 0.06 |
| A21G U25C U26C A35G U49A U67C | 0.02 |
